Reference: PMC4336329 (PLoS ONE, 2015)
In all, about 310,000 compounds went through this assay and about 14,000 (4.5%) showed an effect of 50% or more. Effects have a minus sign here. Some of the results follow.

Target: human ether-à-go-go-related gene (hERG) potassium channel (human, UniProt Q12809)
Assay: primary screen, population patch clamp on CHO cells stably expressing hERG
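Note: peak tail current of the secondary pulse compared with the same well before compound.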

Sequence of human ether-à-go-go-related gene (hERG) potassium channel (Q12809 whole entry, looked up): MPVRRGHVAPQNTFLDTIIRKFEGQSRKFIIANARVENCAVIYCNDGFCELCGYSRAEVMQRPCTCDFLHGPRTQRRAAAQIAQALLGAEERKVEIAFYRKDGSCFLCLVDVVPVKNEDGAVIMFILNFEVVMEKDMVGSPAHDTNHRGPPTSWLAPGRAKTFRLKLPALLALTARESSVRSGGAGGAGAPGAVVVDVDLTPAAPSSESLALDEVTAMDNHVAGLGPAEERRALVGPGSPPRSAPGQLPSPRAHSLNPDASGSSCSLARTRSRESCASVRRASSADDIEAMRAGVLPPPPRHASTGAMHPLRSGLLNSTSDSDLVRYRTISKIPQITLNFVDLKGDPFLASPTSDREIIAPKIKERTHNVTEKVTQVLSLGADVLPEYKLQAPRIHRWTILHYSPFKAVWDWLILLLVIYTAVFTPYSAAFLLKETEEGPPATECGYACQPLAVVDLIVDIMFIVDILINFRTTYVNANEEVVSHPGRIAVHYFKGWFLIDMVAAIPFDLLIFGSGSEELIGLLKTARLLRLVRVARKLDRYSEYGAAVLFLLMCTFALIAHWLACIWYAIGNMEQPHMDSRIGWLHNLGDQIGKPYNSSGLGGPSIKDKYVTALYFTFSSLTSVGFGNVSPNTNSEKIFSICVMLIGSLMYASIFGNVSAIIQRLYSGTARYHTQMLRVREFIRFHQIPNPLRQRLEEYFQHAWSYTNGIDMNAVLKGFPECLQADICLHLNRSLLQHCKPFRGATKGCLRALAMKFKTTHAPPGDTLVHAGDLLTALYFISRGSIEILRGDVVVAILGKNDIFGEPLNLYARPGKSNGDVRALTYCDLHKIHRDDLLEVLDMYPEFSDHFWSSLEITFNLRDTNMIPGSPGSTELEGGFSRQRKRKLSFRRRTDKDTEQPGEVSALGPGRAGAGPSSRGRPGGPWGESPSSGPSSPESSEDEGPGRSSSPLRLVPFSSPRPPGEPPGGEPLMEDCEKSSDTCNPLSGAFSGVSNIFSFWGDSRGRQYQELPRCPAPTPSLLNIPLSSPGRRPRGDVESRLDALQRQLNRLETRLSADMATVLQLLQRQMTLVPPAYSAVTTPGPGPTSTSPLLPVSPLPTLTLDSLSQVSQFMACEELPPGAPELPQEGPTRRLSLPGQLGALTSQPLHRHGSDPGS

Row | SMILES | hERG current change (%, negative = inhibition) at 10uM
1 | CCOC(=O)c1ccc(NC(=O)c2cc(C)nn2-c2ccccc2)cc1 | -7.01%
2 | c1ccc(Nc2nc(CSc3ncn[nH]3)cs2)cc1 | 7.09%
3 | Cc1ccccc1OCC(=O)OCC(=O)Nc1ccc2c(c1)OCCO2 | 5.44%
4 | CCOCc1c(C(=O)Nc2ccc3nc(N4CCOCC4)sc3c2)oc2ccccc12 | -29.4%
5 | c1cc(C2N3CCCN2CC3)ccn1 (centres unmarked) | 17.7%
6 | O=C(N/N=C/c1ccsc1)c1c[nH]c2ccccc12 | -17.3%
7 | COc1ccc(C(C)n2c(C)c3c(C)nnc(C)c3c2C)cc1 (centres unmarked) | -57.9%
8 | O=C(CSc1ccc(-c2nc3ccccc3[nH]2)cn1)Nc1ccc(S(=O)(=O)NC2CC2)cc1 | -1.46%
9 | CCCOn1nnnc1-c1ccccc1 | 7.37%
10 | Cc1c(NC(=O)COC(=O)C23CC4CC(CC(O)(C4)C2)C3)c(=O)n(-c2ccccc2)n1C | 10.1%
11 | O=C(CSc1nc(C2CC2)nc2ccccc12)N1c2ccccc2Sc2ccccc21 | 7.02%
12 | CC(C)(C)c1ccc(S(=O)(=O)NCc2ccc(C(=O)NCc3ccccn3)cc2)cc1 | -25.8%
13 | Cc1sc2nc(SCC(=O)N(C)C)[nH]c(=O)c2c1C | 7.08%
14 | Cc1ccc(S(=O)(=O)NC(C)C(=O)OCC(=O)N(C)c2ccccc2)cc1 (centres unmarked) | 1.95%
15 | CCOC(=O)C1CCN(C(=O)c2cccc(S(=O)(=O)N3c4ccccc4CC3C)c2)CC1 (centres unmarked) | -35.7%
16 | Cc1cc2ccccn2c1C(=O)c1ccc(Cl)cc1 | -6.01%
17 | CCN(CC)CCCNC(=O)C1c2ccccc2C(=O)N(CCOC)C1c1ccc(F)cc1 (centres unmarked) | 14.9%
18 | CC(=O)c1ccc(N(CC(=O)NC2CCCC2)C(=O)c2csnn2)cc1 | 13.8%
19 | CCOc1ccc(-c2ccc3nnc(SCC(=O)NCC4CCCO4)n3n2)cc1 (centres unmarked) | -10.6%
20 | O=C(Nc1ccccc1C(F)(F)F)c1ccsc1 | 7.46%
21 | CC(Cl)c1cc(-c2ncc(C(F)(F)F)cc2Cl)no1 (centres unmarked) | -6.19%
22 | COc1ccccc1CNC(=O)C1Cc2ccccc2C(=O)O1 (centres unmarked) | -2.06%

Row | SMILES | hERG current change (%, negative = inhibition) at 10uM
23 | CCCCn1c(=S)[nH]c2ncccc2c1=O | 10.5%
24 | CCc1ccc(/C=C/c2c([N+](=O)[O-])c(=O)n(C)c(=O)n2C)cc1 | -34.2%
25 | COc1ccc(S(=O)(=O)NCCc2cn3nc(C)c(C)nc3n2)cc1C | 19.2%
26 | Cc1cc(OCCCC(=O)Nc2nnc(C3CC3)s2)ccc1Cl | 20.1%
27 | CC(C)[C@@H](C(=O)NCC1CCCO1)N1C(=O)N2CCc3c([nH]c4ccccc34)[C@@]2(C)C1=O (some centres unmarked) | -11.8%
28 | CC(=O)N(C)c1ccc(NC(=O)C(c2ccccc2)c2ccccc2)cc1 | -0.26%
29 | CCOc1ccc(OCCOCCN2CCOCC2)cc1.O=C(O)C(=O)O | 0.827%
30 | O=C(C1=C[C@@H]2[C@H]3C(=O)N(c4ccccc4Cl)C(=O)[C@H]3[C@@H](C(=O)c3ccc(Cl)cc3)N2C=C1)c1ccccc1 | 6.86%
31 | CS(=O)(=O)N1CCN(c2ccccc2F)CC1 | 9.76%
32 | COc1cccc(C2c3[nH]c4ccccc4c3CCN2Cc2cnc(C)s2)c1OC (centres unmarked) | 2.51%
33 | Cc1nn(C)c(C)c1CNC(=O)Nc1cccc(Cl)c1C | 1.35%
34 | CCCCN(C)CCC(=O)Nc1ccc(Cl)cc1.Cl | -44.6%
35 | N/C(=N\OC(=O)CCc1ccccc1)c1ccccc1Cl | 0.158%
36 | Cc1cccc(C)c1OCc1nnc(SCC(=O)NCc2ccccc2)o1 | -26.2%
37 | C(=N\N1CCN(C2c3ccccc3-c3ccccc32)CC1)/c1cccs1 | 3.72%
38 | Cc1onc(-c2ccccc2)c1C(=O)N1CCN(c2ncccc2C(F)(F)F)CC1 | -14.6%
39 | C/C(=N/NC(=O)c1cccs1)c1cccc(N)c1 | 33%
40 | CCN(CC)c1ccc(S(=O)(=O)N(CC)CC)cc1NC(=O)C1CCCC1 | -13.6%
41 | CCCN(Cc1ccccc1)C(=S)Nc1ccc(C(C)=O)cc1 | -12.1%
42 | Cc1cc(Nc2cccc([N+](=O)[O-])c2)c2ccccc2n1 | -76.9%
43 | O=C(Nc1cccc(F)c1)NC1(C(=O)N2CCOCC2)CCCCC1 | 7.24%
44 | COc1ccc(NC(=O)C2CC(=O)N=C(N)S2)cc1 (centres unmarked) | 16.8%
